What was measured:
[1] = system: CC1(C)S[C@@H]2[C@H](NC(=O)[C@H](N)c3ccc(O)cc3)C(=O)N2[C@H]1C(=O)O; assay: (§1) The compound was tested against Bacteroides fragilis FP784 and its stability towards beta-lactamase was evaluated
[2] = system: Cc1nnc(SC2=C(C(=O)O)N3C(=O)[C@@H](NC(=O)Cc4ccccc4)[C@H]3SC2)s1; assay: as §1
[3] = system: CC1(C)S[C@@H]2[C@H](NC(=O)[C@H](N)c3ccc(O)cc3)C(=O)N2[C@H]1C(=O)O; assay: (§2) The compound was tested against Bacteroides fragilis FP784 and its stability towards beta-lactamase relative to cephaloridine was evaluated
[4] = system: Cc1nnc(SC2=C(C(=O)O)N3C(=O)[C@@H](NC(=O)Cc4ccccc4)[C@H]3SC2)s1; assay: as §2

“Beta-lactamase (Escherichia coli K-12) (sequence not shown)” showed a Km [1] of 27.3 µg/mL, a Km [2] of 14.5 µg/mL and a Vmax [3] of 0.0175. The Vmax [4] was 0.351.

Reference: ChEMBL document CHEMBL1132501, “Synthesis and anti-Helicobacter pylori activity of FR182024, a new cephem derivative” (1999)
